About 2,200 (0.71%) of roughly 310,000 compounds showed an effect of 50% or more. Effects have a minus sign here. The list shows a part of the results.
Each compound was assayed against human ether-à-go-go-related gene (hERG) potassium channel (human, UniProt Q12809) (assay: primary screen, population patch clamp on CHO cells stably expressing hERG).
Chain of human ether-à-go-go-related gene (hERG) potassium channel (Q12809 whole entry, looked up): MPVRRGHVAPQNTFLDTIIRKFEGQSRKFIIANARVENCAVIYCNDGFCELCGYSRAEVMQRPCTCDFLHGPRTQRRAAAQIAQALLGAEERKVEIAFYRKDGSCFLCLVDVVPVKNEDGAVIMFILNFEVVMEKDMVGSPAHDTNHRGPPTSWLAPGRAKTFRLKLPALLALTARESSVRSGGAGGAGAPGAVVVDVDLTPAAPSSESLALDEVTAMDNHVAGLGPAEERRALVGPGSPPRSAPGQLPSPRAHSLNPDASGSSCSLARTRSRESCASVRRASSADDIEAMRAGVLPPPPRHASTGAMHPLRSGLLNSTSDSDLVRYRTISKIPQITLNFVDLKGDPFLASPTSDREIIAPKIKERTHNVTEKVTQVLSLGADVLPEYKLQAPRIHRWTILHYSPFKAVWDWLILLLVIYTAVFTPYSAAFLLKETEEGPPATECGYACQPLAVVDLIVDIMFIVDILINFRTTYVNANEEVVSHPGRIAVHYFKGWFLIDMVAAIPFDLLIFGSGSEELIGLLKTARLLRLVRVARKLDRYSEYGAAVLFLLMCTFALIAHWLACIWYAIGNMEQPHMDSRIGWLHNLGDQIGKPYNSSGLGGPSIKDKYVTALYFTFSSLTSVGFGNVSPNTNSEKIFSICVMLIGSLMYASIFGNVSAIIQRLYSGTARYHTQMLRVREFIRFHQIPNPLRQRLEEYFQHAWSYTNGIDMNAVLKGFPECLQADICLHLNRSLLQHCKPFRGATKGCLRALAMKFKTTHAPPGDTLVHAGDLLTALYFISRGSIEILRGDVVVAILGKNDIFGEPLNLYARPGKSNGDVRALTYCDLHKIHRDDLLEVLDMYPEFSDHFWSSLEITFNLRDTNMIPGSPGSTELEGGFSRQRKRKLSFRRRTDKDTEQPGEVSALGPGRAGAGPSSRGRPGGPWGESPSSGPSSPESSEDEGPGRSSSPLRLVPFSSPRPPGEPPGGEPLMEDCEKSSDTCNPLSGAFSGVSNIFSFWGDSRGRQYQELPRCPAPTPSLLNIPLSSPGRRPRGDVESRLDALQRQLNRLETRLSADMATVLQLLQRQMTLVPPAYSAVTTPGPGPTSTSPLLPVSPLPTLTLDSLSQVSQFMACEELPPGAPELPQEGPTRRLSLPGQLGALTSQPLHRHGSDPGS

SMILES	hERG current change (%, negative = inhibition) at 1uM [%]
O=C(OCCOCCN=C1NS(=O)(=O)c2ccccc21)C1CC(=O)N(c2ccccc2)C1 (stereo not shown)	18
CCOC(=O)C1CCN(C(=O)c2ccc(Cl)c(Cl)c2)CC1	-8.87
COC(=O)c1ccc(CSc2cc(C)c3cc(C)cc(C)c3n2)o1	9.76
Cc1cc(C)c2c(=O)[nH]c(SCC(=O)NCCc3ccccc3)nc2n1	8.09
COc1ccc(OC)c(NC(=O)COC(=O)c2c(C)noc2C)c1	13.3
COc1ccc(C(=O)N/N=C(\C)c2ccc3c(c2)C2C=CCC2C(c2ccccc2)N3)cc1 (stereo not shown)	7.57
COc1ccc(Cl)cc1-n1c(=S)sc2c(=O)[nH]c(SCC(=O)NCC3CCCO3)nc21 (stereo not shown)	16.2
CC(C)[C@@H](NC(=O)C1CCC(CNC(=O)[C@H](Cc2ccccc2)NC(=O)OC(C)(C)C)CC1)C(=O)O (stereo partly shown)	7.42
Cc1cccc(CSCCNC(=O)c2ccc(N(C)S(=O)(=O)c3ccccc3)cc2)c1	5.86
Cc1c(NS(=O)(=O)c2ccc(N3CCN(C)CC3)c([N+](=O)[O-])c2)c(=O)n(-c2ccccc2)n1C	13.6
Cc1csc(CN(C)C(=O)C2CCC(=O)N(CCN(C)C)C2)n1 (stereo not shown)	11.4
CN(N)c1nc(-c2ccccc2)cc(-c2ccccc2)n1	22.8
Cc1ccsc1/C=N/NC(=O)Cc1cc(=O)[nH][nH]1	9.54
CCn1c(C)nnc1SCC(=O)NC1CCCC1	6.88
COC(=O)C(O)(c1ccc(N(C)C(=O)OC(C)C)cc1)C(F)(F)F (stereo not shown)	15.7
COc1ccc2nc(/N=C/c3c(C)[nH]n(-c4ccc(C)cc4)c3=O)sc2c1	-31.5
Cc1ccc(C)c(-c2csc(Nc3ncccn3)n2)c1	23.4
CCOC(=O)c1c(NC(=O)c2cc(-c3ccc(Cl)s3)nc3ccccc23)sc(C(N)=O)c1C	14.6
Cc1csc2ncc(C(=O)Nc3ccc(C(F)(F)F)cc3)c(=O)n12	16.5
CN(C)c1nc(-c2ccccc2)ns1	17.1
O=C(CSc1cccc2cccnc12)N1CCCC1	10.2
COC(=O)c1sccc1NC(=O)CSc1ccccc1NS(=O)(=O)c1ccc(Br)cc1	16.9

SMILES	hERG current change (%, negative = inhibition) at 1uM [%]
COC(=O)c1ccc(Oc2c(C)oc3c(CN4CCN(C)CC4)c(O)ccc3c2=O)cc1	16.7
O=C(CSc1nnc(-c2ccccc2F)n1C1CC1)Nc1cccnc1Cl	12.3
CCOC(=O)c1cccc(NC(=O)C2CCCN2S(=O)(=O)c2cccc3cccnc23)c1 (stereo not shown)	-2.22
Cc1ccccc1NS(=O)(=O)c1ccc(OCC(=O)N2CCN(C)CC2)cc1	12.7
NC(=O)c1ccc(Oc2ccc3c(c2)CCC3)c([N+](=O)[O-])c1	10.3
NNC(=O)CN1C(CN2CCOCC2)=Nc2ccc(Br)cc2C1c1ccccc1 (stereo not shown)	-26.7
CCc1nnc(SCC(=O)N2CCCC(N3CCN(c4ccccc4C)CC3)C2)o1 (stereo not shown)	-2.3
O=C(N/N=C\c1ccoc1)c1ccco1	13.4
Cc1cc(C(=O)Nc2c(F)cc(F)cc2Br)c(C)o1	-7.8
O=C(N/N=C/c1cn(Cc2ccccc2)c2ccccc12)c1cc(O)cc(O)c1	14
CC(C)N1CCc2c(sc(NC(=O)c3nc4ccccc4s3)c2C(N)=O)C1.Cl	-1.83
O=C(NCc1ccccc1Cl)c1cnc2ccccc2n1	15.3
COc1ccc(-n2nc3c(c2NC(=O)CBr)CSC3)cc1	7.72
O=C(CCc1c[nH]c2ccccc12)N1CCCCCCC1	7.52
CCOC(=O)c1cnn(-c2ccc(C)cc2)c1N	7.77
CCN(CC)S(=O)(=O)c1ccc(C)c(NC(=O)CNc2cccc(S(=O)(=O)N3CCCC3)c2)c1	16.4
CCS(=O)(=O)c1nc(S(=O)(=O)c2ccc(Cl)cc2)c(N2CCC3(CC2)OCCO3)s1	4.56
Cc1cc(C)n2[nH]c(=O)c(N=Nc3ccc(S(N)(=O)=O)cc3)c2n1	19.8
COc1ccc(OC)c(C2C(C#N)=C(N)N(N(C)C)C3=C2C(=O)CCC3)c1 (stereo not shown)	9.8
O=C(OCn1nnc2ccccc2c1=O)C1COc2ccccc2O1 (stereo not shown)	14.3
Cc1ccc(S(=O)(=O)Nc2c(C)n(C)n(-c3ccccc3)c2=O)cc1C(=O)OCC(=O)N1CCCC(C)C1 (stereo not shown)	3.73

Reference: publication PMC4336329 (PLoS ONE, 2015)
